Each structure is given as a SMILES string. Hit rate of the full screen: of about 45,000 compounds, about 200 (0.44%) were called active. Not shown: some 7% with an inconclusive outcome. Calls come from the whole dose curve; as a rule, active = well fitted activation curve with a large enough effect; inconclusive = small, poorly fitted or top-dose-only effect; inactive = no such curve, though single readings can be large or run the other way. Some of the results follow.

A short description of the assay: qHTS of TDP-43 Inhibitors: NCGC Sytravon Library Screen. Note: 0% is about no effect; nearly all actives have a fitted effect of over 55% in size. The conditions noted are these: yeast TDP-43 toxicity rescue, BacTiter-Glo growth, 24 h; series mostly up to 46.1 µM; growth rescue (activation): at the top concentration. Summed up: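 TDP-43-expressing yeast, pregrown in raffinose, seeded at OD600 0.02 in galactose medium with compound for 24 hr at 30 deg C. Growth read by BacTiter-Glo luminescence, so rescue of toxicity appears as activation.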
With `Cc1cc2c(c(N)n1)c(=O)oc1ccccc12`, the “growth rescue (activation)” value is inactive: -9.18%. Next, `CC(NC(=S)Nc1c(Cl)cccc1OC(F)F)C(C)(C)C` (stereo not drawn): inactive: -2%; `Cc1ccnc(NC(=O)CCC(=O)N(CC(=O)NCc2ccc(F)cc2)CC2CCCO2)c1` (stereo not drawn): inactive: -16.1%.

As to `O=C(COC(=O)C1Cc2ccccc2CN1C(=O)c1ccccc1)Nc1ccc(SC(F)F)cc1` (stereo not drawn), the “growth rescue (activation)” value is inactive: 8.21%. Next, `O=C(/C=C/c1ccc(Cl)cc1)NCc1ccco1`: inactive: -7.19%; `CC1CCCN(CC(O)COc2ccc(-c3ccccc3)cc2)C1` (stereo not drawn): inactive: -75.3%. Regarding `CCOC(=O)N1CCN(C(=O)c2c(-c3c(Cl)cccc3Cl)noc2C)CC1`, the “growth rescue (activation)” value was inactive: 14.2%. Next, `O=[N+]([O-])c1ccc(NC(=S)N2CCOCC2)cc1`: inactive: 16.9%. Next, `CC(=O)c1ccc(N2CCN(Cc3nc4ccccc4[nH]3)CC2)cc1`: inactive: 4.46%. Next, `Cn1cc([N+](=O)[O-])c(C(=O)N/N=C/c2ccc([N+](=O)[O-])cc2)n1`: inactive: 0.117%.

As to `Cc1ccc(CONC(=O)c2ccccc2)cc1`, the “growth rescue (activation)” value is inactive: 24.3%.

On to `CCOc1ccccc1N(CC(=O)NCCOC)C(=O)CCC(=O)Nc1ccccn1`, for which the “growth rescue (activation)” value is inactive: 3.44%.

For `COc1ccc(OC2CCN(S(=O)(=O)c3ccc(F)cc3)CC2)cc1`, the “growth rescue (activation)” value is inactive: 15.7%.

For the molecule `CC1(C)CC(NC(=O)CSc2ccccc2)CC(C)(C)N1`, the “growth rescue (activation)” value is inactive: 2.96%. Next, `O=C1c2ccccc2NC(c2ccccn2)N1NS(=O)(=O)c1ccccc1` (stereo not drawn): inactive: -21.1%; `COCCn1c(SCC(=O)c2c(-c3ccccc3)n(C)c3ccccc23)nnc1-c1ccncc1`: inactive: -18.5%. Next, `Cn1cccc1CC(=O)NNC(=S)Nc1ccccc1Cl`: inactive: 14.3%; `Cc1cc(S(=O)(=O)N2CCCC2)ccc1OCC(=O)NCc1ccccn1`: inactive: 11.8%; `COc1cccc(/C=N/Nc2cc(Cl)nc(C)n2)c1O`: inactive: 7.31%.

Regarding `CC(=O)N1CCN(Cc2nc3cc(NC(=O)COc4cccc(C)c4)ccc3n2C)CC1`, the “growth rescue (activation)” value was inactive: 6.62%.

In the case of `CCN(CC)C(=O)c1cn(CCC#N)nc1-c1ccc2c(c1)OCCO2`, the “growth rescue (activation)” value was inactive: -0.13%. Next, `COc1ccccc1Nc1nc(-c2ccccc2O)nc2ccccc12`: inactive: -5.46%; `COc1ccc(NC(=O)c2ccc(NC(=O)CCS(=O)(=O)c3cccs3)cc2)cc1`: inactive: 16.6%. In the case of `CC(=O)c1ccc(N=Nc2ccc(C)cc2)cc1`, the “growth rescue (activation)” value is inactive: 19.8%. Next, `COc1ccc2nc(NC(=O)c3cc(S(=O)(=O)N4CCOCC4)ccc3C)sc2c1`: inactive: 1.4%; `Cc1cc(S(=O)(=O)NCc2ccccc2)ccc1OCC(=O)NCC1CCCO1` (stereo not drawn): inactive: 8.15%. Next, `COC(=O)CSc1nc2ccccn2c(=O)c1C=O`: inactive: -4.66%; `NS(=O)(=O)c1ccc(CCNC(=O)CCCn2c(=O)[nH]c3ccc(Br)cc3c2=O)cc1`: inactive: 4.72%; `CS(=O)(=O)N(CCC#N)Cc1ccc(C=O)o1`: inactive: 12.1%.

On to `COC(=O)CCNC(=O)c1ccc2[nH]c(C)c(C)c2c1`, for which the “growth rescue (activation)” value was inactive: -8.44%. Next, `CN(C)C(CNC(=S)Nc1ccc(F)cc1)c1cccnc1` (stereo not drawn): inactive: -5.64%; `Cc1ccc(-n2nc(C(=O)O)c(O)cc2=O)cc1`: inactive: -3.86%. Next, `Cc1ccc(NS(=O)(=O)c2ccccc2[N+](=O)[O-])cc1S(=O)(=O)N1CCCCC1`: inactive: 6.82%; `Cc1[nH]c2ccccc2c1/C=C(/C#N)C(=O)NC(C)C`: inactive: -10.3%; `O=C(O)c1cc2nc(-c3cccs3)cc(C(F)(F)F)n2n1`: inactive: -13.3%. Turning to `COc1ccc(/C=C(\C#N)C(=O)NCc2cccs2)cc1OC`, the “growth rescue (activation)” value is inactive: -24.1%. With `CCc1cc[n+](/C(C(=S)Nc2cccc(C)c2)=C(/[O-])c2ccc(C)c([N+](=O)[O-])c2)cc1`, the “growth rescue (activation)” value is inactive: 3.45%. Next, `CN1CCc2c(sc3nc(NN)n(Cc4ccccc4)c(=O)c23)C1`: inactive: 0.162%. As to `Cc1c(C(=O)Nc2ccccc2)sc2ncn(CC(=O)N3CCCCC3)c(=O)c12`, the “growth rescue (activation)” value was inactive: 4.09%. Next, `Cc1nn(CCCC(=O)NCCc2ccccc2)c(C)c1[N+](=O)[O-]`: inactive: 1.64%; `COc1ccc(C(=O)Nc2ccc(N3CCCC3)cc2)cc1OC`: inactive: 13.7%; `COc1cc(/C=C2\SC(=O)N(CCNC(=O)c3cnc(C)cn3)C2=O)cc(OC)c1OC`: inactive: 10.4%. Regarding `COc1ccc(C(=O)NC(=S)NCc2cccnc2)cc1[N+](=O)[O-]`, the “growth rescue (activation)” value was inactive: -11.6%.

`N=C1C(c2nc3ccccc3s2)=C(O)CN1NC(=O)c1c[nH]c2ccccc12`: the “growth rescue (activation)” value was inactive: -3.38%.

Regarding `Cc1cc(F)ccc1C(O)c1ncc(-c2cccc(F)c2)[nH]1` (stereo not drawn), the “growth rescue (activation)” value is inactive: 4.08%. Next, `C=CCN(c1ccccc1OC)S(=O)(=O)c1ccc(Cl)c(C(=O)Nc2ccc(N3CCOCC3)cc2)c1`: inactive: 5.1%; `Cc1ccc(Nc2nc3ccccc3n3nnnc23)cc1`: inactive: -16%. As to `CC(=O)C1=C(C)N2CCN=C2S1`, the “growth rescue (activation)” value is inactive: -14.6%.

For `Cc1ccc2nc(-c3ccc(NC(=O)c4cccnc4)cc3)oc2c1`, the “growth rescue (activation)” value was inactive: 36.8%. As for `CN1CCN(c2nc3ccccc3nc2NS(=O)(=O)c2ccc(Br)cc2)CC1`, the “growth rescue (activation)” value is inactive: -7.57%. Next, `COC(=O)c1c(NC(=S)NN2CCOCC2)sc2c1CCCC2`: inactive: 5.36%; `COc1ccc(Cc2nnc(NCCO)[nH]c2=O)cc1OC`: inactive: -5.98%; `Cc1cccc(NC(=O)C2CCN(C(=O)NCc3ccccc3)CC2)c1C`: inactive: -1.17%.

These data come from PubChem BioAssay AID1347073 (National Center for Advancing Translational Sciences (NCATS), 2019).
